Test results: PubChem BioAssay AID493208 (National Center for Advancing Translational Sciences (NCATS), 2011)
The campaign covered roughly 44,000 compounds. About 340 (0.77%) were called active. Not shown: some 5% with an inconclusive outcome. Calls come from the whole dose curve; as a rule, active = well fitted inhibition curve with a large enough effect; inconclusive = small, poorly fitted or top-dose-only effect; inactive = flat fitted curve, though single readings scatter. The list shows a part of the results.

assay: Acumen qHTS Assay for Inhibitors of the mTORC1 Signaling Pathway in MEF (Tsc2-/-, p53-/-) Cells: Sytravon; details: phospho-rpS6 immunofluorescence/PI, 24 h; series mostly up to 38.3 µM; activity change, negative = inhibition: at the top concentration;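 note: plate controls were DMSO for no effect and rapamycin for full effect; nearly all actives have a fitted effect of over 50% in size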
Summary of the method: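 Plate MEFs (Tsc2-/-, p53-/-, empty vector) in DMEM/10% FBS; after 24 h add compound, incubate 24 h at 37 degree Celsius; fix in PFA/TX-100, block, stain phospho-rpS6 and 10 uM PI; scan at 488 nm; report % positive cells.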

Question: With `COc1ccc(Br)cc1C1C(C(=O)Nc2ccc(C)cc2C)=C(C)Nc2ncnn21` (stereo not drawn) as the molecule, how does the “activity change, negative = inhibition” value read?
Answer: inactive: -11.5%

Question: With `Cc1ccc(C)c(N2CCN(C(=O)c3cn(CC(C)C)c(=O)c4c3c3ccccc3n4C)CC2)c1` as the molecule, how does the “activity change, negative = inhibition” value read?
Answer: inactive: -1.96%

Question: Which “activity change, negative = inhibition” value does the source give for `COCCCNc1nc(NCc2ccccc2OC)c2cnn(C)c2n1` here?
Answer: inactive: 0%

Question: For `Cc1ccc(C)c(CSc2nc(-c3ccccc3F)nc3c2Cc2c(CO)cnc(C)c2O3)c1`, which “activity change, negative = inhibition” value is on record?
Answer: inactive: 3.98%

Question: Which “activity change, negative = inhibition” value does the source give for `COc1ccc(NC(=O)Cn2c(=O)n(-c3cc(C)cc(C)c3)c(=O)c3oc4ccccc4c32)cc1OC` here?
Answer: inactive: -2.42%

Question: For `COc1cccc(NC(=O)Cn2nnc(C(=O)NCc3cccs3)c2N)c1`, which “activity change, negative = inhibition” value is on record?
Answer: inactive: -6.66%

Question: With `O=C(NCCc1ccccc1)c1nn(-c2ccccc2F)nc1CO` as the molecule, how does the “activity change, negative = inhibition” value read?
Answer: inactive: -3.72%

Question: For `Cc1ccc2c(CNCCc3ccccc3)c(C(=O)O)n(Cc3ccccc3C)c2c1`, which “activity change, negative = inhibition” value is on record?
Answer: inactive: 0.143%

Question: For `CCOc1ccc(C(=O)Cn2c(=O)n3nc(CCn4nc(C)cc4C)nc3c3cc(OC)c(OC)cc32)cc1`, which “activity change, negative = inhibition” value is on record?
Answer: inactive: 0.998%

Question: Which “activity change, negative = inhibition” value does the source give for `Cc1cccc(N(C)c2nc3ccccc3c3nnc(C)n23)c1` here?
Answer: inactive: -2.37%

Question: With `COc1cc(NC(=O)c2cc(C3CC3)nc3c2c(C)nn3-c2ccccc2)cc(OC)c1` as the molecule, how does the “activity change, negative = inhibition” value read?
Answer: inactive: 2.09%

Question: Which “activity change, negative = inhibition” value does the source give for `COC(=O)Cn1c(=O)c2cccn2c2ccc(F)cc21` here?
Answer: inactive: -11.5%

Question: For `Cc1ccccc1N1CCN(S(=O)(=O)c2nnc(NC(=O)c3ccc(C(C)C)cc3)s2)CC1`, which “activity change, negative = inhibition” value is on record?
Answer: inactive: 4.02%

Question: Which “activity change, negative = inhibition” value does the source give for `CCCCCn1c(NCc2ccc(OC)cc2)nc2ccccc21` here?
Answer: inactive: -8.67%

Question: Which “activity change, negative = inhibition” value does the source give for `Cc1ccc(NC(=O)CSc2nnc(-c3ccc([N+](=O)[O-])cc3)o2)c(C)c1` here?
Answer: inactive: -7.07%

Question: For `Cc1ccc(C(=O)c2cn(CC(=O)Nc3ccc(C(C)C)cc3)c3nc(C)ccc3c2=O)cc1`, which “activity change, negative = inhibition” value is on record?
Answer: inactive: 0%

Question: For `CCS(=O)(=O)N1CCCC(C(=O)NCCOC)C1` (stereo not drawn), which “activity change, negative = inhibition” value is on record?
Answer: inactive: 0.94%

Question: Which “activity change, negative = inhibition” value does the source give for `COc1ccc(-n2nc(C(=O)Nc3ccccn3)c3c4ccccc4n(C)c3c2=O)cc1` here?
Answer: inactive: -9.25%

Question: With `COc1ccccc1OC(C)C(=O)Nc1cccc(-c2nc3ccccc3s2)c1` (stereo not drawn) as the molecule, how does the “activity change, negative = inhibition” value read?
Answer: inactive: 0%

Question: Which “activity change, negative = inhibition” value does the source give for `CCOC(=O)c1ccc(NC(=O)c2cnc3c(-c4ccc(F)cc4)c(C)nn3c2C)cc1` here?
Answer: inactive: -1.35%

Question: With `Cc1cc(C)n(-c2nc3ccccc3nc2Nc2ccc(N(C)C)cc2)n1` as the molecule, how does the “activity change, negative = inhibition” value read?
Answer: inactive: -1.82%

Question: For `CCOc1ccc(-c2nc3c(c(SCC(=O)Nc4ccccc4C)n2)Cc2ccccc2O3)cc1`, which “activity change, negative = inhibition” value is on record?
Answer: inactive: 1.41%

Question: With `Cc1cc(C)cc(NC(=O)Cn2c(-c3cncs3)nc3ccccc32)c1` as the molecule, how does the “activity change, negative = inhibition” value read?
Answer: inactive: 4.04%

Question: With `CN(C)c1ccc(CNC(=O)c2ccc(Cn3c(SCc4ccccc4)nc4cccnc43)cc2)cc1` as the molecule, how does the “activity change, negative = inhibition” value read?
Answer: inactive: -6.51%

Question: With `Cc1ccccc1CNC(=O)c1ccc2c(c1)c(C)c(C)n2C` as the molecule, how does the “activity change, negative = inhibition” value read?
Answer: inactive: 6.89%

Question: With `CCc1ccc(CNC(=O)c2cnc3sc(N4CCCC4)nn3c2=O)cc1` as the molecule, how does the “activity change, negative = inhibition” value read?
Answer: inactive: -0.158%

Question: Which “activity change, negative = inhibition” value does the source give for `Cc1ccc(Cl)cc1NC(=O)C1CCN(c2nnc(C)c3c(C)n(-c4ccccc4)nc23)CC1` here?
Answer: inactive: 0.444%

Question: For `Cc1ccccc1Cn1nnc2c(=O)[nH]c(C3CCN(C(=O)c4ccc(F)cc4)CC3)nc21`, which “activity change, negative = inhibition” value is on record?
Answer: inactive: 1.05%

Question: Which “activity change, negative = inhibition” value does the source give for `Cc1cc(C)c(Cn2c3ccccc3c3cnn(CC(=O)NCc4cccs4)c(=O)c32)c(C)c1` here?
Answer: inactive: 2.3%

Question: With `CCC(C)NC(=O)CCCN1C(=O)CCn2nc(-c3cccn3C)cc21` (stereo not drawn) as the molecule, how does the “activity change, negative = inhibition” value read?
Answer: inactive: -6.1%

Question: For `CCc1cccc(NC(=O)COC(=O)c2cn(CC)c3nc(C)ccc3c2=O)c1`, which “activity change, negative = inhibition” value is on record?
Answer: inactive: -2.8%

Question: With `CCCc1cc(=O)[nH]c(SCC(=O)N2CCN(c3ccccc3)CC2)n1` as the molecule, how does the “activity change, negative = inhibition” value read?
Answer: inactive: -2.16%

Question: Which “activity change, negative = inhibition” value does the source give for `COc1ccc(CNC(=O)CSCc2nc(-c3ccccc3C)oc2C)cc1` here?
Answer: inactive: -10.2%

Question: For `COc1ccc(CNC(=O)c2ccc(-c3nc(CSc4ccccc4)c(C)o3)cc2)cc1OC`, which “activity change, negative = inhibition” value is on record?
Answer: inactive: -0.937%

Question: For `CC(C)c1nn2c(=O)cc(COC(=O)c3ccc(NC(=O)COc4ccccc4)cc3)nc2s1`, which “activity change, negative = inhibition” value is on record?
Answer: inactive: 3.82%

Question: With `COc1ccccc1C(=O)Nc1ccccc1OCc1cc(=O)n2c(C)csc2n1` as the molecule, how does the “activity change, negative = inhibition” value read?
Answer: inactive: -13.9%

Question: Which “activity change, negative = inhibition” value does the source give for `COc1ccc(NC(=O)CN2C(=O)CCn3nc(-c4cccn4C)cc32)cc1Cl` here?
Answer: inactive: 3.11%

Question: Which “activity change, negative = inhibition” value does the source give for `O=S(=O)(c1ccc(-c2cc(C(F)(F)F)on2)s1)N1CCN(c2ccccc2F)CC1` here?
Answer: inactive: 0.139%

Question: Which “activity change, negative = inhibition” value does the source give for `CC(=O)Nc1nonc1-c1nnc(SCC(=O)Nc2ccc(C)cc2)n1-c1ccccc1` here?
Answer: inactive: 0%

Question: Which “activity change, negative = inhibition” value does the source give for `CCOC(=O)c1sc2cccc(F)c2c1S(=O)(=O)NCc1ccccc1Cl` here?
Answer: inactive: -11.1%

Question: Which “activity change, negative = inhibition” value does the source give for `O=C(CS(=O)(=O)c1cccc2nsnc12)N1CCN(c2cccc(Cl)c2)CC1` here?
Answer: inactive: -0.17%

Question: With `COc1ccc(-c2cc(-c3ccccc3)c(C#N)c(SCC(O)CS(=O)(=O)Cc3ccc(Cl)cc3)n2)cc1` (stereo not drawn) as the molecule, how does the “activity change, negative = inhibition” value read?
Answer: inactive: 8.13%

Question: For `COc1cccc(N2CCN(C(=O)c3ccc(C)c(NC(=O)c4nsc5ccccc45)c3)CC2)c1`, which “activity change, negative = inhibition” value is on record?
Answer: inactive: 7.7%

Question: For `COc1cc(SC)ccc1C(=O)Nc1ccc(S(=O)(=O)Nc2nccc(C)n2)cc1`, which “activity change, negative = inhibition” value is on record?
Answer: inactive: -2.01%

Question: With `Cc1ccc(C(c2sc3nc(-c4ccco4)nn3c2O)N2CCCC2)cc1` (stereo not drawn) as the molecule, how does the “activity change, negative = inhibition” value read?
Answer: inactive: -1.43%

Question: For `Cc1ccc(N(CC(=O)NCCc2ccc(Cl)cc2)S(=O)(=O)c2c(C)noc2C)cc1`, which “activity change, negative = inhibition” value is on record?
Answer: inactive: -18.7%

Question: Which “activity change, negative = inhibition” value does the source give for `Cc1cccc(NC(=O)Cn2nnc(-c3nc(-c4ccncc4)no3)c2N)c1` here?
Answer: inactive: -9.03%

Question: For `COc1ccc(CN2CCc3c(c(=O)n4ncc(C(=O)N5CCN(c6ccccc6OC)CC5)c4n3C)C2)cc1`, which “activity change, negative = inhibition” value is on record?
Answer: inactive: -11.9%
